Consider 306 variants from a collection of fitness landscapes (doi:10.1126/science.1257360).

Some of the results follow.

Sequences and labels used below:
B1: PhoQ; a variant is named by its letters at X, in order, P23837 (parent)
chain: MKKLLRLFFPLSLRVRFLLATAAVVLVLSLAYGMVALIGYSVSFDKTTFRLLRGESNLFYTLAKWENNKLHVELPENIDKQSPTMTLIYDENGQLLWAQRDVPWLMKMIQPDWLKSNGFHEIEADVNDTSLLLSGDHSIQQQLQEVREDDDDAEMTHSVAVNVYPATSRMPKLTIVVVDTIPVELKSSYMVWSWFIYVLSANLLLVIPLLWVAAWWSLRPIEALAKEVRELEEHNRELLNPATTRELTSLVRNLNRLLKSERERYDKYRTTLTDLTHSLKTPLXXLQXXLRSLRSEKMSVSDAEPVMLEQISRISQQIGYYLHRASMRGGTLLSRELHPVAPLLDNLTSALNKVYQRKGVNISLDISPEISFVGEQNDFVEVMGNVLDNACKYCLEFVEISARQTDEHLYIVVEDDGPGIPLSKREVIFDRGQRVDTLRPGQGVGLAVAREITEQYEGKIVAGESMLGGARMEVIFGRQHSAPKDE

This experiment covers variants of B1. Kind of experiment: enrichment ratio after two sorts for PhoP signalling (ratio (wild type AVST 3.29)); higher = more functional. As to conditions: with PhoP (E. coli).
For the variant GSKC, the enrichment ratio is ≤ 0.25.
The result for HPME reads ≤ 0.25.
TRKI: the enrichment ratio is ≤ 0.25.
With KDYK, the enrichment ratio was ≤ 0.25.
On to YMCP, for which the enrichment ratio was ≤ 0.25.
Then QTWG, with ≤ 0.25.
As for ARNH, the enrichment ratio was ≤ 0.25.
Then RQTI, with ≤ 0.25; and DELN, with ≤ 0.25.
In the case of KPES, the enrichment ratio is ≤ 0.25.
Take NDTI: the enrichment ratio was ≤ 0.25.
Take RDWR: the enrichment ratio was ≤ 0.25.
As for PTIA, the enrichment ratio was ≤ 0.25.
The result for RWCY reads ≤ 0.25.
Take PLCS: the enrichment ratio was ≤ 0.25.
On to YRYK, for which the enrichment ratio was ≤ 0.25.
As to WMRN, the enrichment ratio was ≤ 0.25.
Then FVPL, with ≤ 0.25; and NQVE, with ≤ 0.25; and EVEG, with ≤ 0.25.
TAQG: the enrichment ratio was 2.47.
The result for LVAP reads ≤ 0.25.
The result for FWIM reads ≤ 0.25; that for ATKC, ≤ 0.25; that for QNYD, ≤ 0.25.
The result for PVIK reads ≤ 0.25; that for KDHT, ≤ 0.25.
Consider YPWN, for which the enrichment ratio was ≤ 0.25.
Consider EFRV, for which the enrichment ratio is ≤ 0.25.
Then ITYR, with ≤ 0.25.
Take SVLW: the enrichment ratio worked out at 1.53.
As for STKC, the enrichment ratio was ≤ 0.25.
As for KAMW, the enrichment ratio was determined as 0.482.
Then SETE, with 5.75; and VKHN, with ≤ 0.25.
With RQMY, the enrichment ratio is ≤ 0.25.
For GITV, the enrichment ratio stood at 9.69.
For IEKC, the enrichment ratio was ≤ 0.25.
Take NVGY: the enrichment ratio was ≤ 0.25.
As to THDP, the enrichment ratio is ≤ 0.25.
Then DRWF, with ≤ 0.25; and SPFN, with ≤ 0.25; and WPCN, with ≤ 0.25.
In the case of SGNN, the enrichment ratio is ≤ 0.25.
Then NHYL, with ≤ 0.25; and KYYQ, with ≤ 0.25; and RLME, with ≤ 0.25.
For the variant QNNM, the enrichment ratio was ≤ 0.25.
Then RHHN, with ≤ 0.25; and IAIW, with ≤ 0.25; and SEMM, with 32.5.
Then NHSK, with ≤ 0.25.
Then ILDM, with ≤ 0.25; and TSSA, with 11.3; and IMPY, with ≤ 0.25.
Regarding YDTP, the enrichment ratio is ≤ 0.25.
Then EYIE, with ≤ 0.25.
For the variant RACN, the enrichment ratio is ≤ 0.25.
The result for TWRL reads ≤ 0.25.
The result for WALS reads 0.433; that for STTN, 19.3; that for DEDM, ≤ 0.25.
Turning to DYKP, the enrichment ratio is ≤ 0.25.
Consider MKFM, for which the enrichment ratio was ≤ 0.25.
Then YKYV, with ≤ 0.25.
As to EMQS, the enrichment ratio is ≤ 0.25.
In the case of GQVQ, the enrichment ratio was ≤ 0.25.
ANHE: the enrichment ratio is ≤ 0.25.
Then SYEV, with ≤ 0.25; and GYEG, with ≤ 0.25.
Consider KIAG, for which the enrichment ratio was ≤ 0.25.
For KCCA, the enrichment ratio was ≤ 0.25.
Then QPIY, with ≤ 0.25.
As to AALI, the enrichment ratio stood at 11.9.
As for NAPI, the enrichment ratio was ≤ 0.25.
The result for HTGD reads ≤ 0.25.
For the variant RKHT, the enrichment ratio was ≤ 0.25.
For IFMI, the enrichment ratio is ≤ 0.25.
Take VLRH: the enrichment ratio is ≤ 0.25.
The result for ARQN reads ≤ 0.25.
The result for DFLR reads ≤ 0.25.
The result for PDKC reads ≤ 0.25; that for VWAH, ≤ 0.25; that for YPNW, ≤ 0.25.
For the variant MVQW, the enrichment ratio is ≤ 0.25.
Regarding MHNV, the enrichment ratio was ≤ 0.25.
The result for TPAC reads ≤ 0.25; that for KFFT, ≤ 0.25.
In the case of MDEL, the enrichment ratio was ≤ 0.25.
For KTTP, the enrichment ratio is ≤ 0.25.
Then KIYC, with ≤ 0.25; and YTWD, with ≤ 0.25; and QHWF, with ≤ 0.25.
On to TNWA, for which the enrichment ratio was ≤ 0.25.
For RKPI, the enrichment ratio was ≤ 0.25.
In the case of WMWP, the enrichment ratio was ≤ 0.25.
As to QVIF, the enrichment ratio was ≤ 0.25.
Then STDG, with ≤ 0.25.
Consider MNTI, for which the enrichment ratio was 13.1.
The result for IMFT reads ≤ 0.25; that for MFPN, ≤ 0.25; that for FFHA, ≤ 0.25.
Then DYDL, with ≤ 0.25.
The result for YSDV reads ≤ 0.25; that for HRIT, ≤ 0.25; that for TSTV, 26.5.
Consider KTMN, for which the enrichment ratio was ≤ 0.25.
The result for RPKI reads ≤ 0.25; that for LSLV, 5; that for NDQK, ≤ 0.25.
QDSV: the enrichment ratio is ≤ 0.25.
The result for SSHY reads ≤ 0.25; that for FFIQ, ≤ 0.25.
The result for FRHK reads ≤ 0.25.
The result for PHYY reads ≤ 0.25; that for DQFM, ≤ 0.25; that for VQEM, ≤ 0.25.
Take GPLA: the enrichment ratio is ≤ 0.25.
The result for AGWH reads ≤ 0.25.
Regarding FEVL, the enrichment ratio amounted to 1.99.
The result for AYSN reads ≤ 0.25; that for LKWH, ≤ 0.25.
Then VPSF, with ≤ 0.25; and APFL, with ≤ 0.25; and GRVP, with ≤ 0.25.
Take VFIA: the enrichment ratio is ≤ 0.25.
Regarding PRVF, the enrichment ratio is ≤ 0.25.
Turning to YQLC, the enrichment ratio is ≤ 0.25.
With NRAD, the enrichment ratio was ≤ 0.25.
The result for NSSG reads ≤ 0.25; that for QGAI, 3.08.
The result for RFCF reads ≤ 0.25.
Then RVWE, with ≤ 0.25; and NAPE, with ≤ 0.25.
As for ESPL, the enrichment ratio was ≤ 0.25.
Regarding INMN, the enrichment ratio is ≤ 0.25.
The result for ATLS reads 10.6; that for LRVN, ≤ 0.25.
The result for PHVM reads ≤ 0.25; that for EIMA, ≤ 0.25.
As to GSQV, the enrichment ratio is ≤ 0.25.
The result for AHQK reads ≤ 0.25; that for WKTI, ≤ 0.25.
Then YRNG, with ≤ 0.25; and VYLM, with ≤ 0.25.
YGIV: the enrichment ratio was ≤ 0.25.
As for WTHC, the enrichment ratio is ≤ 0.25.
The result for FSQL reads ≤ 0.25.
Take NIFY: the enrichment ratio is ≤ 0.25.
The result for NKTC reads ≤ 0.25; that for HRHH, ≤ 0.25; that for HIRS, ≤ 0.25.
With FSTL, the enrichment ratio is 4.4.
GADW: the enrichment ratio was ≤ 0.25.
Then ACVH, with ≤ 0.25; and TESQ, with 22.8; and MGAF, with ≤ 0.25.
Then SSDV, with ≤ 0.25; and NWHH, with ≤ 0.25; and IYFC, with ≤ 0.25.
Regarding YRQA, the enrichment ratio is ≤ 0.25.
Then LTAY, with ≤ 0.25; and PMNV, with ≤ 0.25; and IGTM, with ≤ 0.25.
DYVN: the enrichment ratio is ≤ 0.25.
As for GPTH, the enrichment ratio is ≤ 0.25.
Consider YAPW, for which the enrichment ratio was ≤ 0.25.
Then LECE, with ≤ 0.25.
Then KRTL, with ≤ 0.25; and KPWI, with ≤ 0.25; and HDIG, with ≤ 0.25.
Regarding TGDG, the enrichment ratio is 1.47.
Then SDES, with ≤ 0.25; and GPFE, with ≤ 0.25.
The result for DEIS reads ≤ 0.25; that for KPRN, ≤ 0.25.
Then VRSM, with ≤ 0.25; and TGDI, with ≤ 0.25.
For the variant YRWH, the enrichment ratio was ≤ 0.25.
Then CVYF, with ≤ 0.25.
Turning to LVQY, the enrichment ratio is ≤ 0.25.
Then MGHD, with ≤ 0.25.
Then ALSS, with 3.53; and PWMP, with ≤ 0.25; and LYFC, with ≤ 0.25.
The result for CGFN reads ≤ 0.25.
For TAMG, the enrichment ratio is 17.2.
Then GASA, with 3.66; and AEMH, with 36.8; and HLMK, with ≤ 0.25.
Take KYLW: the enrichment ratio was ≤ 0.25.
In the case of TSLA, the enrichment ratio was found to be 16.6.
Take SWIK: the enrichment ratio was ≤ 0.25.
Regarding RTLF, the enrichment ratio was ≤ 0.25.
Take YNAG: the enrichment ratio was ≤ 0.25.
Take DHKS: the enrichment ratio is ≤ 0.25.
As for TILW, the enrichment ratio is ≤ 0.25.
Then NYPY, with ≤ 0.25; and SWDW, with ≤ 0.25.
Then SDLN, with 4.44.
For MGFK, the enrichment ratio is ≤ 0.25.
For NMFW, the enrichment ratio was ≤ 0.25.
The result for ILIC reads ≤ 0.25; that for PCYK, ≤ 0.25.
Take MMYR: the enrichment ratio is ≤ 0.25.
As for IWMI, the enrichment ratio was ≤ 0.25.
Then PILI, with ≤ 0.25; and ITDS, with ≤ 0.25; and MGQF, with ≤ 0.25.
In the case of NQNL, the enrichment ratio is ≤ 0.25.
On to HKRL, for which the enrichment ratio is ≤ 0.25.
The result for ECDK reads ≤ 0.25; that for SIGF, 8.62; that for IIWH, ≤ 0.25.
As to YHRC, the enrichment ratio was ≤ 0.25.
The result for ACAI reads 1.04; that for SMPM, ≤ 0.25; that for RWCA, ≤ 0.25.
As to GHQH, the enrichment ratio was ≤ 0.25.
QPTG: the enrichment ratio was ≤ 0.25.
Then PFIQ, with ≤ 0.25.
In the case of MDLR, the enrichment ratio was ≤ 0.25.
On to PCID, for which the enrichment ratio was ≤ 0.25.
The result for GDCG reads ≤ 0.25; that for WLWE, ≤ 0.25.
The result for SPYE reads ≤ 0.25; that for FESF, ≤ 0.25.
For the variant QYIW, the enrichment ratio was ≤ 0.25.
Take YGIY: the enrichment ratio was ≤ 0.25.
Then VYFW, with ≤ 0.25.
For RHAD, the enrichment ratio is ≤ 0.25.
Take YALA: the enrichment ratio worked out at 1.77.
Regarding TVRD, the enrichment ratio was ≤ 0.25.
For AGEG, the enrichment ratio is ≤ 0.25.
As for LPYN, the enrichment ratio was ≤ 0.25.
Then ISGL, with ≤ 0.25.
Then KTSC, with ≤ 0.25; and VITD, with ≤ 0.25; and VGGK, with ≤ 0.25.
The result for ETCM reads ≤ 0.25.
Take DNMV: the enrichment ratio is ≤ 0.25.
Then MQTW, with ≤ 0.25.
Then SWIL, with 2.05.
Take VCLR: the enrichment ratio is ≤ 0.25.
Regarding QVSL, the enrichment ratio was determined as 1.9.
Consider TTKQ, for which the enrichment ratio worked out at 1.94.
Then FNPG, with ≤ 0.25.
Then FDWA, with ≤ 0.25; and TTCD, with 4.79; and ITIQ, with ≤ 0.25.
As to LFPF, the enrichment ratio is ≤ 0.25.
MDCF: the enrichment ratio is ≤ 0.25.
For THYD, the enrichment ratio turned out to be 0.791.
The result for FTRR reads ≤ 0.25.
The result for PFFN reads 4.98.
The result for TQTS reads 7.29.
For HFYW, the enrichment ratio was ≤ 0.25.
For ATRN, the enrichment ratio is ≤ 0.25.
Then IDAM, with ≤ 0.25.
Then RDYD, with ≤ 0.25; and SITC, with 5.56.
Regarding SKKD, the enrichment ratio was ≤ 0.25.
Regarding RRIY, the enrichment ratio is ≤ 0.25.
The result for HKAK reads ≤ 0.25; that for PCAV, ≤ 0.25.
Then QRCV, with ≤ 0.25; and ETYN, with ≤ 0.25.
The result for SPWE reads ≤ 0.25.
For WDCK, the enrichment ratio is ≤ 0.25.
Regarding MGTA, the enrichment ratio was ≤ 0.25.
The result for SCMF reads 12.3.
Take LLCK: the enrichment ratio was ≤ 0.25.
Then RYKT, with ≤ 0.25.
The result for DECY reads ≤ 0.25; that for LIAR, ≤ 0.25.
In the case of AMGS, the enrichment ratio stood at 4.58.
Then SCHK, with ≤ 0.25; and TGYD, with ≤ 0.25.
Then GILR, with 12.2; and FWQK, with ≤ 0.25.
Take AILA: the enrichment ratio came out at 9.78.
The result for VHNW reads ≤ 0.25; that for ATQW, ≤ 0.25; that for TLCG, 0.756.
In the case of VDWF, the enrichment ratio was ≤ 0.25.
The result for HQSM reads ≤ 0.25; that for SSSN, 12.1.
VEIC: the enrichment ratio amounted to 4.5.
In the case of QCIH, the enrichment ratio is ≤ 0.25.
DCPH: the enrichment ratio is ≤ 0.25.
Take AAIH: the enrichment ratio is ≤ 0.25.
Then RIRS, with ≤ 0.25; and HMQC, with ≤ 0.25.
Then LMYW, with ≤ 0.25; and MTIL, with 0.687.
With VAIG, the enrichment ratio was ≤ 0.25.
In the case of FYDM, the enrichment ratio is ≤ 0.25.
NPVG: the enrichment ratio was ≤ 0.25.
The result for WTNN reads ≤ 0.25; that for PQLW, ≤ 0.25; that for GCEP, ≤ 0.25.
Then KHAH, with ≤ 0.25; and STMH, with 8.42.
Consider RPPG, for which the enrichment ratio was ≤ 0.25.
The result for RLSI reads ≤ 0.25; that for RLCP, ≤ 0.25.
